Source: PubChem BioAssay AID686979 (National Center for Advancing Translational Sciences (NCATS), 2013)
“And” between values parts separate entries of the source, which are not always exact repeats. Equal entries are not always repeated. In all, about 420,000 compounds went through this assay and about 50,000 (12%) were called active. The shares of active, inactive and inconclusive entries below differ from those in the screen. The call rests on the fitted dose curve; in most records, active means well fitted inhibition curve with a large enough effect; inconclusive means small, poorly fitted or top-dose-only effect; inactive means flat fitted curve, though single readings scatter. Potencies of inconclusive entries are doubtful fits and often do not repeat.
On the % scale 0 is the no-effect control and ±100 the full control effect; potency means the concentration at half of the fitted maximal effect; tags describe the fitted curve by direction and shape.

Assay: qHTS for Inhibitors of human tyrosyl-DNA phosphodiesterase 1 (TDP1): qHTS in cells in presence of CPT; further: nearly all actives have a fitted effect of over 55% in size
Settings: chicken DT40 Tdp1-/-;hTDP1 cells + 20 nM CPT, ATP luminescence, 48 h; activity change, negative = growth inhibition: at 46.2 µM (top of the series)
Method in brief: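 Cell growth measured by CellTiter-Glo luminescence after a minimum 48 h, 37 C compound exposure with 20 nM CPT in Tdp1-knockout DT40 cells stably expressing hTDP1, seeded 400/well; qHTS titration format.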
In the case of `Cc1cccc(NC(=S)N2CCC(C(=O)c3ccc(F)cc3)CC2)c1`, the Potency is reported as inconclusive: 18.4 µM [inhibitor, single point].
With `Cc1ccc2nc(CSc3nnc(NC(=O)C(C)C)s3)cc(=O)n2c1` the Potency was inconclusive: 25.9 µM [inhibitor, single point].
For `Cc1cccc(C)c1NC(=O)c1nc(S(=O)(=O)Cc2ccccc2F)ncc1Cl`, the Potency was active: 1.26 µM.
For `C#CCNc1c2c(nc3ncnn13)CC(C)CC2` (stereo not given), the “activity change, negative = growth inhibition” value was inactive: -8.61%.
With `Cc1cccc2c(=O)cc(CSc3ccccc3NC(=O)c3cccc(Cl)c3)[nH]c12` the Potency was inconclusive: 29.1 µM [inhibitor, single point].
In the case of `CCCCn1c(CCn2nc(C)c(Br)c2C)n[nH]c1=S`, the “activity change, negative = growth inhibition” value is reported as inactive: -14.5%.
With `Clc1ccc(C2Nc3cccc4cccc(c34)N2)cc1Cl` the Potency was inconclusive: 29.1 µM [inhibitor, single point].
In the case of `CCNS(=O)(=O)c1ccc(NC(=O)c2cncc(Br)c2)cc1`, the Potency is reported as inconclusive: 10.3 µM [inhibitor, partial curve].
For `CC1C(=O)N2CCCc3cc(NC(=O)C(=O)NCCc4ccccc4)cc1c32` (stereo not given), the Potency was inconclusive: 29.1 µM [inhibitor, single point].
In the case of `CC1(C)C2([N+](=O)[O-])CN3CC1([N+](=O)[O-])CN(C2)C3c1ccc(O)c(O)c1` (stereo not given), the Potency is reported as inconclusive: 29.1 µM [inhibitor, single point].
For `CCC(=NCCc1c(C)[nH]c2ccc(OC(F)(F)F)cc12)C1=C(O)CC(c2ccccc2)CC1=O` (stereo not given), the Potency was active: 4.61 µM.
With `C=CCn1c(O)c(C2=c3ccccc3=NC2=O)sc1=Nc1ccc(O)cc1` the Potency was active: 23.1 µM.
With `CSc1ccc(C2c3c(-c4ccccc4O)n[nH]c3C(=O)N2Cc2ccncc2)cc1` (stereo not given) the Potency was active: 23.1 µM.
In the case of `Cc1cccc(C(=O)NCCc2nc3ccccc3n2CCC(C)C)c1`, the Potency is reported as inconclusive: 16.4 µM [inhibitor, single point].
For `Oc1c(Br)cc(Br)cc1C=NCc1ccc(F)cc1`, the Potency was inconclusive: 20.6 µM [inhibitor, single point].
For `CN=C1c2c(-c3ccccc3)c3cc(OC)ccc3n2CCN1C`, the Potency was active: 23.1 µM.
In the case of `COc1ccc(OC)c(NC(=O)CSc2nccn2Cc2ccco2)c1`, the Potency is reported as inconclusive: 18.4 µM [inhibitor, single point].
In the case of `C/C=N/NC(=O)CCCC(=O)N/N=C/C`, the Potency is reported as inconclusive: 18.4 µM [inhibitor, single point].
With `N#Cc1ccc(OCC(=O)Nc2ccc3[nH]c(=O)[nH]c3c2)cc1` the “activity change, negative = growth inhibition” value was inactive: -4.68%.
In the case of `O=C1Nc2ccc(Br)cc2/C1=N/N=C/C1=C(N2CCOCC2)C(=C\c2ccccc2)/CC1`, the Potency is reported as active: 16.4 µM.
For `COCCN(C(=O)c1cccc(N2C(=O)CCC2=O)c1)c1nc(-c2ccc([N+](=O)[O-])cc2)cs1`, the Potency was inconclusive: 29.1 µM [inhibitor, single point].
With `CN(c1ccc(C(=O)N2CCCCC2)cc1)S(=O)(=O)c1cccs1` the Potency was inconclusive: 20.6 µM [inhibitor, single point].
In the case of `COC(=O)c1ccccc1S(=O)(=O)NNC(=O)Nc1ccccc1`, the “activity change, negative = growth inhibition” value is reported as inactive: -23.2%.
For `COc1ccccc1CNc1cc(-c2ccccc2Cl)ncn1`, the Potency was active: 16.4 µM.
In the case of `Cc1cccc(OCC(=O)Nc2c(C(=O)Nc3ccc(F)cc3)oc3ccccc23)c1`, the “activity change, negative = growth inhibition” value is reported as inactive: -10.4%.
For `COc1cc(C2c3[nH]c4ccccc4c3C[C@H]3C(=O)N(C4CC4)CC(=O)N23)ccc1OC(C)C` (stereo not given in full), the Potency was inconclusive: 25.9 µM [inhibitor, single point].
With `O=C(CN1C(=O)c2ccccc2S1(=O)=O)NC1CCCC1` the “activity change, negative = growth inhibition” value was inactive: -6.92%.
In the case of `CCCN1CCN(c2nnc(-n3cccc3C(=O)Nc3ccccc3C(F)(F)F)s2)CC1`, the Potency is reported as active: 20.6 µM.
With `COc1cccc(Cn2c(=O)c(CCc3ccccc3)nc3cnc(OC)nc32)c1` the Potency was inconclusive: 16.4 µM [inhibitor, single point].
In the case of `CCCCCOc1ccc(/C=C/C(=O)NCCc2nc3ccccc3[nH]2)cc1OC`, the Potency is reported as active: 16.4 µM.
For `O=c1c2sc3ccccc3c2n(Cc2cccc(Cl)c2)c(=O)n1Cc1ccccc1`, the Potency was active: 13 µM.
With `S=C(NCCc1ccccc1)N1CCN(C2CCCCC2)CC1` the Potency was inconclusive: 1.46 µM [inhibitor, full curve, poor fit].
For `Cc1ccc2nc(NC(=O)c3ccco3)sc2c1`, the Potency was inconclusive: 8.2 µM [inhibitor, partial curve, poor fit].
For `COC(=O)Cn1c(CCS(=O)(=O)c2ccc(C)cc2)nc2ccccc21`, the Potency was inconclusive: 22.4 µM [inhibitor, single point] and the activity change, negative = growth inhibition was inconclusive: -30.3% [inhibitor].
With `O=C(O)c1ccccc1/C=N/Nc1ccc(S(=O)(=O)N2CCOCC2)cc1[N+](=O)[O-]` the “activity change, negative = growth inhibition” value was inactive: -2.54%.
With `N#CC1CC(c2ccc([N+](=O)[O-])cc2)=NN1c1ccc([N+](=O)[O-])cc1` (stereo not given) the Potency was inconclusive: 29.1 µM [inhibitor, single point].
For `COc1ccc(S(=O)(=O)Nc2cccc(-c3ccc(N4CCCCCC4)nn3)c2)cc1OC`, the Potency was “inactive and inconclusive: 23.1 µM [inhibitor, single point]”.
With `Cc1ccc(CN2CCC(n3nccc3NC(=O)CCCc3ccccc3)CC2)o1` the activity change, negative = growth inhibition was inconclusive: -34.4% [inhibitor].
With `O=C1COc2ccc(S(=O)(=O)NCc3ccccc3)cc2N1` the “activity change, negative = growth inhibition” value was inactive: -3.48%.
In the case of `C=CCNC(=O)c1cc(Cl)cc(Cl)c1`, the Potency is reported as inconclusive: 29.1 µM [inhibitor, single point].
In the case of `O=C(N[C@H]1CC[C@H](CCNS(=O)(=O)c2ccc(Cl)cc2)O[C@@H]1CO)c1cccc(F)c1`, the Potency is reported as inconclusive: 16.4 µM [inhibitor, partial curve, poor fit].
In the case of `C=CCn1c(N)c(C(=O)OCC(C)C)c2nc3ccccc3nc21`, the Potency is reported as inconclusive: 29.1 µM [inhibitor, single point].
With `O=C(C(=O)c1cc(Br)ccc1O)c1cc(Br)ccc1O` the Potency was inconclusive: 20.6 µM [inhibitor, single point].
With `COc1ccccc1NC(=O)COc1ccc(C(=O)NCc2ccccc2)cc1OC` the Potency was inconclusive: 23.1 µM [inhibitor, single point].
With `Cc1ccc(S(=O)(=O)Nn2c(O)c(C=C3N=c4ccccc4=N3)sc2=S)cc1` the Potency was inconclusive: 29.1 µM [inhibitor, single point].
For `CC(C)(C)c1cc(Cl)c(O)c(NC(=S)NC(=O)c2cccnc2)c1`, the Potency was active: 4.61 µM.
With `COC(=O)[C@@]1(Cc2ccccc2)[C@H]2C(=O)N(C)C(=O)[C@H]2[C@H]2CN=C(SCc3ccc(C#N)cc3)N21` the Potency was inconclusive: 25.9 µM [inhibitor, single point].
In the case of `COc1ccc(-c2cc(=O)[nH]c(=O)[nH]2)cc1`, the “activity change, negative = growth inhibition” value is reported as inactive: 4.15%.
For `COC(=O)c1c(NC(=O)CCl)sc(C(=O)N2CCOCC2)c1C`, the Potency was inconclusive: 25.9 µM [inhibitor, single point].
In the case of `O=C(COc1ccccc1[N+](=O)[O-])Nc1ccc(NC(=O)c2cc3ccccc3o2)cc1`, the Potency is reported as active: 23.1 µM.
In the case of `COc1cccc(NC(=O)C(NCC2CCCCC2)c2ccccc2)c1` (stereo not given), the “activity change, negative = growth inhibition” value is reported as inactive: -18.2%.
With `O=C(NCc1ccc(Cl)cc1)c1cc(=O)nc2sc(-c3ccccc3)nn12` the Potency was inconclusive: 12.6 µM [inhibitor, partial curve].
For `CN(C(=O)Nc1ccc(Cl)cc1Cl)[C@H]1c2cc(Br)ccc2OC[C@H]1CO`, the Potency was inconclusive: 10 µM [inhibitor, partial curve].
With `CC1(c2ccccc2)NC(=O)N(CC(=O)N2CC(=O)Nc3ccccc32)C1=O` (stereo not given) the “activity change, negative = growth inhibition” value was inactive: 30.7%.
For `O=C(NCCc1ccccc1)C1CCN(C2CCN(C(=O)CC3=CCCCC3)CC2)CC1`, the activity change, negative = growth inhibition was inconclusive: -43.4% [inhibitor].
For `Cc1ccc(C(=O)OC(C)C(=O)NC2CCCCC2)cc1S(=O)(=O)N1CCCCC1` (stereo not given), the Potency was inconclusive: 29.1 µM [inhibitor, single point].
In the case of `CC(C)(C)c1ccc(OCCC(=O)OCC(=O)NC(=O)NC2CCCC2)cc1`, the Potency is reported as active: 18.4 µM.
With `Cc1ccc(S(=O)(=O)NCCCC(=O)N2CCC(C)CC2)cc1` the “activity change, negative = growth inhibition” value was inactive: 0.802%.
For `CCCn1c(=O)c2c(ncn2C)n(CCC)c1=O`, the Potency was inconclusive: 29.1 µM [inhibitor, single point] and inconclusive: 18.4 µM [inhibitor, single point].
With `NC(=O)c1ccc(NC(=O)COC(=O)CC2Sc3ccccc3NC2=O)cc1` (stereo not given) the “activity change, negative = growth inhibition” value was inactive: 3.45%.
With `Oc1ccccc1CN1CCN(C(c2ccccc2)c2ccccc2)CC1` the Potency was inconclusive: 23.1 µM [inhibitor, single point].
With `Cc1nc(-c2ccccc2)nc2sc(C(=O)c3ccc(F)cc3)c(N)c12` the Potency was inconclusive: 23.1 µM [inhibitor, single point].
With `CC(=O)c1ccccc1NC(=O)c1cc(S(=O)(=O)N2CCOCC2)ccc1N1CCCC1` the Potency was inconclusive: 23.1 µM [inhibitor, single point].
For `CCC1CN(C(=O)NCc2ccc(F)cc2)c2cc(C)ccc2O1` (stereo not given), the Potency was inconclusive: 29.1 µM [inhibitor, single point].
For `CC(=O)COc1ccc2c3c(c(=O)oc2c1C)CCCCC3`, the Potency was active: 14.6 µM.
For `CC1CC(NC(=O)/C(C#N)=C/c2ccc[nH]2)CC(C)(C)C1` (stereo not given), the Potency was active: 0.0184 µM.
In the case of `CN(C(=O)CSc1nc2[nH]ncc2c(=O)[nH]1)c1ccccc1`, the “activity change, negative = growth inhibition” value is reported as inactive: -2.31%.
In the case of `O=C(c1cccc(Cl)c1)N1CCC2CC1c1cc(N3CCOCC3)ccc12` (stereo not given), the Potency is reported as inconclusive: 18.4 µM [inhibitor, single point].
In the case of `Cc1ccccc1N1CCN(C(=S)c2ccc(-c3cccc([N+](=O)[O-])c3)o2)CC1`, the Potency is reported as inconclusive: 29.1 µM [inhibitor, single point].
